Measurements as given in the supplement of paper PMC11417369.
± gives the standard deviation of the averaged measurements. The list shows a part of the results.

What follows are sequences tested on PfAP2-G AP2 domain (GST-tagged) (assay: gcPBM binding intensity (ln(normalized median fluorescence intensity)); higher = stronger DNA binding).
How it was run: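 Alexa488 anti-GST antibody, scanned at 488 nm, detected GST-tagged P. falciparum DNA-binding domains that had been expressed in E. coli and incubated for 1 h on an Agilent 4 × 180k array. The array carried primer-extended double-stranded 36-bp intergenic genomic probes and negative controls. Binding intensity is the highest Masliner-normalised natural-log median intensity across replicate spots of either orientation of each probe.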

**Q.** How did the “gcPBM binding intensity (ln)” value turn out when “ATAAAATAAATATAACCACACACGAAAGAGAGAGAA [CACACA_site9075]” was run?
**A.** The value was 10.09 ± 0.057.

**Q.** With “TTTTTAGGAAAGGCGGCACACATTTATATATTTATT [CACACA_site3672]” as the sequence, how does the “gcPBM binding intensity (ln)” value read?
**A.** Its value is 9.95 ± 0.071.

**Q.** TTCGCCCTAAATAGAGTGCATTATATATATTAATAT was tested. Which “gcPBM binding intensity (ln)” value did it give?
**A.** Its value is 10.04 ± 0.021.

**Q.** With “TTCCAACCAATACAAACATGCATTTGAAAAAATGTA [TGCATGCA_site119]” as the sequence, how does the “gcPBM binding intensity (ln)” value read?
**A.** Its value is 9.85 ± 0.071.

**Q.** For “TTTATTTTATCATTTGCACACGCACGCCCACATAAA [CACACA_site353]”, which “gcPBM binding intensity (ln)” value is on record?
**A.** The value was 11.1 ± 0.82.

**Q.** “CAAAATATATTGAATTGTACATAAAAATAAAAATTA [XGTACX_site4193]” was tested. Which “gcPBM binding intensity (ln)” value did it give?
**A.** Its value is 11.1 ± 0.73.

**Q.** How did the “gcPBM binding intensity (ln)” value turn out when “AGCAGTCAGCAGGACAGTACACAGTAGCCAGTAACT [XGTACX_site1999]” was run?
**A.** Its value is 11.1 ± 0.74.

**Q.** “ATTAATATATTTACCACACACCCATTTCGATTTTAT [CACACA_site3605]” was tested. Which “gcPBM binding intensity (ln)” value did it give?
**A.** Its value is 10.2 ± 0.16.

**Q.** Which “gcPBM binding intensity (ln)” value does the source give for “ATATGTAAAATATGGTGTACAATCAAATAAAAAAAA [XGTACX_site6270]” here?
**A.** The value was 11.6 ± 0.95.

**Q.** “CATATAAAAGGACACACACACACATATATATATATA [CACACA_site4674]” was tested. Which “gcPBM binding intensity (ln)” value did it give?
**A.** The value was 11.3 ± 0.79.

**Q.** Which “gcPBM binding intensity (ln)” value does the source give for “TATTTTATTTTTTGTTGTACATATATATTATATATA [XGTACX_site4513]” here?
**A.** Its value is 11.3 ± 0.73.

**Q.** With “GATATATTACTTAAAATACACACCATGGAAAAGTTT [CACACA_site2606]” as the sequence, how does the “gcPBM binding intensity (ln)” value read?
**A.** Its value is 10.18 ± 0.035.

**Q.** For “GAATATGTTAACATTTGTACATAAAATTTTTTACAA [XGTACX_site2444]”, which “gcPBM binding intensity (ln)” value is on record?
**A.** Its value is 11 ± 0.58.

**Q.** Which “gcPBM binding intensity (ln)” value does the source give for “ATGTTTAAATTTTTCAGTACATATATTCTAGTAAAA [XGTACX_site1010]” here?
**A.** The value was 11.1 ± 0.8.

**Q.** For “ATGGTTTTTATTTTATGTACTTACTAAAATGAATAA [XGTACX_site4317]”, which “gcPBM binding intensity (ln)” value is on record?
**A.** Its value is 11.4 ± 0.88.

**Q.** Which “gcPBM binding intensity (ln)” value does the source give for “TACATAAAAATATATGCATGTTCTTATTTAATAAAA [TGCATGCA_site743]” here?
**A.** The value was 9.78 ± 0.33.

**Q.** With “AAAATATTATTACAGAAACAAAAAGAAAAATATATA [GTGCAC_negctrl_site285]” as the sequence, how does the “gcPBM binding intensity (ln)” value read?
**A.** The value was 9.56 ± 0.12.

**Q.** For “AATATATATATATATCCACACACATACATATATTAA [CACACA_site7907]”, which “gcPBM binding intensity (ln)” value is on record?
**A.** The value was 9.76 ± 0.17.

**Q.** With “TATACGTATTTTATATGTACACATATACATATTTAT [XGTACX_site5301]” as the sequence, how does the “gcPBM binding intensity (ln)” value read?
**A.** Its value is 11.4 ± 0.79.

**Q.** Which “gcPBM binding intensity (ln)” value does the source give for “TTTTCTTTTAAGTTTGTTTTACACTTTTTATTTTGA [CACACA_negctrl_site1581]” here?
**A.** The value was 9.825 ± 0.092.

**Q.** With “AATATATGGTTTCATGATATTAAATTCAATTTAATG [GTGCAC_negctrl_site370]” as the sequence, how does the “gcPBM binding intensity (ln)” value read?
**A.** Its value is 9.97 ± 0.099.

**Q.** “AAATATAAATATACTCGTACATATATATATATATAT [XGTACX_site6940]” was tested. Which “gcPBM binding intensity (ln)” value did it give?
**A.** The value was 11 ± 0.73.

**Q.** Which “gcPBM binding intensity (ln)” value does the source give for “TGTTACATAAAATGCACACTTTCAAATATGCTAATA [CACACA_site2925]” here?
**A.** The value was 9.99 ± 0.2.

**Q.** Which “gcPBM binding intensity (ln)” value does the source give for “AAAAAAATCTCCAGTGTGCACAATCACATAATATAT [GTGCAC_site9833]” here?
**A.** The value was 10.5 ± 0.18.

**Q.** “GAGATAAAATAAAACACACACATATATATATAGAAT [CACACA_site2197]” was tested. Which “gcPBM binding intensity (ln)” value did it give?
**A.** Its value is 9.855 ± 0.035.

**Q.** Which “gcPBM binding intensity (ln)” value does the source give for “TATAAGCTAAGTTGTTGTACAAAAAGGAAAAGTATA [XGTACX_site3741]” here?
**A.** Its value is 11.1 ± 0.59.

**Q.** With “ACAATATAAAAAAATTGTACATAATATATAATATTA [XGTACX_site1040]” as the sequence, how does the “gcPBM binding intensity (ln)” value read?
**A.** Its value is 10.9 ± 0.48.

**Q.** With “CATGCTTATATGTGCACACACAAAAGAAAAGAAAAA [CACACA_site1655]” as the sequence, how does the “gcPBM binding intensity (ln)” value read?
**A.** The value was 10.6 ± 0.62.

**Q.** With “ACTATATTTCATAACAGTACATATTCCTGAAACATC [XGTACX_site4924]” as the sequence, how does the “gcPBM binding intensity (ln)” value read?
**A.** Its value is 10.8 ± 0.33.

**Q.** With “TACCTTATGTTATATACACACATATAACATAATATA [CACACA_site6741]” as the sequence, how does the “gcPBM binding intensity (ln)” value read?
**A.** Its value is 9.92 ± 0.21.

**Q.** For “TTCCTTTGTTGTCGTTGTACTTATATGGTTATAATT [XGTACX_site3082]”, which “gcPBM binding intensity (ln)” value is on record?
**A.** Its value is 11.3 ± 0.82.

**Q.** How did the “gcPBM binding intensity (ln)” value turn out when “TATACATAAAAAAATTTTACCAGGTTAATACAAATA [CACACA_negctrl_site1171]” was run?
**A.** The value was 10.08 ± 0.085.

**Q.** Which “gcPBM binding intensity (ln)” value does the source give for “ATTTAGAAAAATAAAACACACATATATCTGTAAATA [CACACA_site6119]” here?
**A.** Its value is 9.925 ± 0.021.

**Q.** With “ATATATATATATAGTAGTACTCTCTCTGTATATATA [XGTACX_site3754]” as the sequence, how does the “gcPBM binding intensity (ln)” value read?
**A.** The value was 11.3 ± 0.75.

**Q.** Which “gcPBM binding intensity (ln)” value does the source give for “ATCATTCTTAAACCGTGTACTTATTATTTTTTTTTT [XGTACX_site2798]” here?
**A.** The value was 11.4 ± 0.84.

**Q.** Which “gcPBM binding intensity (ln)” value does the source give for “TCTAATACACAATGTTGTACATATTAATATATATGT [XGTACX_site2931]” here?
**A.** Its value is 11.5 ± 0.89.

**Q.** With “AAATGACTATATAAAAGTACTAGAAAGTATAAATAT [XGTACX_site944]” as the sequence, how does the “gcPBM binding intensity (ln)” value read?
**A.** The value was 10.9 ± 0.38.

**Q.** Which “gcPBM binding intensity (ln)” value does the source give for “AAAATACACGATAGTTGTACATTAAATGTATACAAT [XGTACX_site360]” here?
**A.** The value was 11.1 ± 0.61.

**Q.** Which “gcPBM binding intensity (ln)” value does the source give for “CATCCGTTGATATATGCATGCATATTGTTATTACCA [TGCATGCA_site868]” here?
**A.** Its value is 10.01 ± 0.064.

**Q.** For “ATATAAAAAAAAAATTGTACAAAAATATATACATAT [XGTACX_site469]”, which “gcPBM binding intensity (ln)” value is on record?
**A.** The value was 10.9 ± 0.26.

**Q.** Which “gcPBM binding intensity (ln)” value does the source give for “GCATATATGGATATATAGGTATATATAAATGCAATA [GTGCAC_negctrl_site24]” here?
**A.** Its value is 9.71 ± 0.24.

**Q.** “CCTCTCATTTTATATAGTACATATTTCAAAAAAAAA [XGTACX_site488]” was tested. Which “gcPBM binding intensity (ln)” value did it give?
**A.** The value was 10.9 ± 0.76.

**Q.** For “AGGAGGATAGTTCACAGTACCCAGTAACTCTACGGA [XGTACX_site1997]”, which “gcPBM binding intensity (ln)” value is on record?
**A.** Its value is 10.7 ± 0.37.

**Q.** How did the “gcPBM binding intensity (ln)” value turn out when “TATAAAGATATAAATGCACACGTATTAAAAAAAAAA [CACACA_site8223]” was run?
**A.** Its value is 10.3 ± 0.18.

**Q.** “TAATTTTTTTTAAACACACACATTACATTCAAAAAT [CACACA_site127]” was tested. Which “gcPBM binding intensity (ln)” value did it give?
**A.** The value was 10.1 ± 0.26.

**Q.** For “TTCACTAATAAATACGCACACATATACATATATATA [CACACA_site1383]”, which “gcPBM binding intensity (ln)” value is on record?
**A.** The value was 10.5 ± 0.43.

**Q.** How did the “gcPBM binding intensity (ln)” value turn out when “TTTCAAATATATATAGCACACAAGGTATAATATAAA [CACACA_site877]” was run?
**A.** The value was 9.895 ± 0.021.

**Q.** How did the “gcPBM binding intensity (ln)” value turn out when “TTTTAATTAGTACAAACACACATATACACCCAAAAA [CACACA_site5422]” was run?
**A.** Its value is 11.4 ± 0.93.

**Q.** With “ATATAAAAAAGGGAGGTAAATGAATGTGAAACCCAA [GTGCAC_negctrl_site359]” as the sequence, how does the “gcPBM binding intensity (ln)” value read?
**A.** Its value is 10.2 ± 0.13.

**Q.** With “CTAATATAGGTATGCACACACAATATGTACATATTT [CACACA_site7558]” as the sequence, how does the “gcPBM binding intensity (ln)” value read?
**A.** The value was 11.5 ± 0.7.

**Q.** “TAATTGTAGACATGCACACACAAATATTATATATGT [CACACA_site845]” was tested. Which “gcPBM binding intensity (ln)” value did it give?
**A.** Its value is 10.14 ± 0.064.

**Q.** Which “gcPBM binding intensity (ln)” value does the source give for “TATATATGTATATATTGTACTTTAAGACAAATATAT [XGTACX_site1052]” here?
**A.** The value was 11.1 ± 0.65.

**Q.** How did the “gcPBM binding intensity (ln)” value turn out when “AATATTTTTCAATTTCATGTGCATTCATTGAAGTTA [CACACA_negctrl_site1232]” was run?
**A.** The value was 9.78 ± 0.11.

**Q.** Which “gcPBM binding intensity (ln)” value does the source give for “TTCTTAAATATATTCAACATACATAATATATAATCT [CACACA_negctrl_site1806]” here?
**A.** The value was 9.68 ± 0.13.

**Q.** Which “gcPBM binding intensity (ln)” value does the source give for “CGTTATATAATAAAGGTGCATAGATATATCATTATA [GTGCAC_site9774]” here?
**A.** The value was 9.99 ± 0.23.

**Q.** For “TATATAACATATATATGTACACATAATATCAGATTT [XGTACX_site1041]”, which “gcPBM binding intensity (ln)” value is on record?
**A.** Its value is 11.4 ± 0.99.
